The values that follow come from the supplement of paper PMC3656093.

± gives the standard deviation of the averaged measurements. Whole data set: some 1,900 compounds, median “CD40L-induced NF-kB luciferase activity, plate-corrected, relative to DMSO (0) and IKK inhibitor VII (-100) controls” near 0.032, cut for the lowest 2% near -26. This is one part of the list.

In this assay the test system is BL2-NFkB-Luc. Nature of the assay: CD40L-induced NF-kB luciferase activity, plate-corrected, relative to DMSO (0) and IKK inhibitor VII (-100) controls (% normalized activity); higher = more NF-kB reporter activity (less inhibition). To be noted: 9.4 µM; stimulus: tCD40L 64 ng/ml; 4.5 h. Here is the method: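 BL2 B cells with a stable NF-kB response-element luciferase reporter (BL2-NFkB-Luc), 384-well. Cells were pre-incubated with compound at 9.4 uM for 1 h at 37 C, then stimulated with 64 ng/ml trimerized CD40L for 4.5 h; luciferase was read with Steady-Glo. Signal was normalised per plate in Genedata (median DMSO neutral control = 0, median IKK inhibitor VII at 50 uM = -100) with Assay Median plate-pattern correction; duplicate plates.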
As for `Cc1nc(NCc2ccco2)c(C#N)c2c1COC(C)(C)C2`, the “CD40L-induced NF-kB luciferase activity” value was -5.81 ± 6.
The result for `CN(C)C(=O)CCCCCCCCC(=O)N(C)C` reads -0.277 ± 1.3; that for `O=S(=O)(CCc1nc2ccccc2[nH]1)c1ccc(Cl)cc1`, -12.2 ± 1.3; that for `CC(C)Oc1cccc(C(=O)N2CCCC2)c1`, -0.9 ± 2.4.
The result for `CC(C)Cc1ccc(C(C)C(=O)O)cc1` (configuration not stated) reads 2.3 ± 5; that for `CC(=O)NC(C(=O)NCC(N)=O)C(C)C` (configuration not stated), 1.19 ± 2.5; that for `O=C1CN(O)C=C2N=c3ccccc3=C2N1c1ccc([N+](=O)[O-])cc1`, 0.0767 ± 1.2.
Take `COCCc1ccc(OCC(O)CNC(C)C)cc1` (configuration not stated): the “CD40L-induced NF-kB luciferase activity” value is -6.81 ± 1.3.
In the case of `CC(C)(C)NCC(O)COc1cccc2c1C[C@H](O)[C@H](O)C2` (some centres not stated), the “CD40L-induced NF-kB luciferase activity” value was -5.07 ± 1.9.
The result for `Cc1cc(C)c2c(CCl)cc(=O)oc2c1` reads 2.87 ± 1.8.
The result for `Cc1coc2c1c(C)cc1oc(=O)c(Cc3ccccc3)c(C)c12` reads 1.05 ± 2.4; that for `Cc1ccc2nc3c(cc(C(=O)NCC4CCCO4)c(=N)n3CCCOC(C)C)c(=O)n2c1` (configuration not stated), 4.67 ± 4.
The result for `COc1cc(C(=O)CCN2CCC(c3ccccc3)C2)cc(OC)c1OC` (configuration not stated) reads -7.8 ± 0.22.
Regarding `Cn1c([N+](=O)[O-])cnc1COC(N)=O`, the “CD40L-induced NF-kB luciferase activity” value was -1.24 ± 5.2.
With `CCC1CCc2c(sc(NC(=O)c3cccnc3)c2C(N)=O)C1` (configuration not stated), the “CD40L-induced NF-kB luciferase activity” value came out at 25.2 ± 6.5.
The result for `Fc1ccccc1CNCCC(Cc1ccccc1)c1ccc2c(c1)OCO2` (configuration not stated) reads -0.335 ± 0.92.
The result for `COc1ccc(C(=O)Nc2ccc(OC)c([N+](=O)[O-])c2)cc1Br` reads 1.1 ± 2.5.
The result for `Cc1ccccc1-c1coc2cc(O)ccc2c1=O` reads 4.65 ± 2.2.
As for `CCOC(=O)C(=Cc1ccccc1OC)C(=O)OCC`, the “CD40L-induced NF-kB luciferase activity” value is -29 ± 6.1.
In the case of `COc1cc(C2Nc3ccccc3NC3=C2C(=O)CC(c2ccc(OC)c(OC)c2)C3)ccc1O` (configuration not stated), the “CD40L-induced NF-kB luciferase activity” value was found to be 0.269 ± 0.21.
On to `COC(=O)c1ccc(COc2ccc3c(C)c(C)c(=O)oc3c2C)o1`, for which the “CD40L-induced NF-kB luciferase activity” value is -0.554 ± 5.
The result for `COc1ccc(C2C(C(=O)c3ccco3)=C(O)C(=O)N2CC2CCCO2)cc1` (configuration not stated) reads 2.98 ± 4.2; that for `Cc1cccc(C2=N/C(=C\c3cccnc3)C(=O)O2)c1`, -3.64 ± 9.2; that for `Nc1cc(-c2ccncc2)c[nH]c1=O`, -8.44 ± 1.2.
Consider `CCOC(=O)c1cc2c(nc1N)CC(C)(CC)OC2` (configuration not stated), for which the “CD40L-induced NF-kB luciferase activity” value came out at 44.2 ± 5.9.
The result for `O=C(CN1C(=O)C2CCc3[nH]c4ccccc4c3C2C1=O)N1CCCC1` (configuration not stated) reads 0.555 ± 7.7.
The result for `OC(CCN1CCCCC1)(c1ccccc1)C1CCCCC1` (configuration not stated) reads 1.3 ± 1.7; that for `COc1ccc2c(c1)CC[C@@H]1[C@@H]2CC[C@]2(C)C(=O)CC[C@@H]12`, -0.108 ± 2.2; that for `Cc1cccc(Oc2coc3cc(OC(=O)c4cncc(Br)c4)ccc3c2=O)c1`, 15 ± 3.7.
With `COc1ccc2c(CCNC(=O)c3ccc([N+](=O)[O-])cc3)c[nH]c2c1`, the “CD40L-induced NF-kB luciferase activity” value was -3.48 ± 6.8.
On to `CCNC(=O)C(Cc1ccccc1)NC(=O)OCc1ccccc1` (configuration not stated), for which the “CD40L-induced NF-kB luciferase activity” value was 4.35 ± 11.
The result for `O=C1OC(=O)C2C1[C@@H]1CC[C@H]2O1` (some centres not stated) reads -3.42 ± 0.2.
The result for `C=C1C2(C(=O)Nc3ccc(SC(F)F)cc3)CCC(C2)C1(C)C` (configuration not stated) reads 1.47 ± 2.7.
The result for `CC[N+]1(CC)CC2=Cc3ccccc3CC2C1` (configuration not stated) reads -4.39 ± 2.2; that for `COc1ccccc1Oc1c(C)oc2c(CN3CCN(CCO)CC3)c(O)ccc2c1=O`, -0.82 ± 6.9; that for `COc1ccc(CNC(=O)C2CCCN2C)cc1OC` (configuration not stated), -2.11 ± 1.2.
On to `COc1ccc(OC)c(NC2=C(Cl)C(=O)N(Cc3ccccc3)C2=O)c1`, for which the “CD40L-induced NF-kB luciferase activity” value was 2.94 ± 3.3.
The result for `OCCOCCN1CCN(C(c2ccccc2)c2ccc(Cl)cc2)CC1` (configuration not stated) reads -2.13 ± 1.9; that for `C[C@]12CCC(=O)C[C@@H]1CC[C@@H]1[C@@H]2CC[C@]2(C)C=CC[C@@H]12`, 0.624 ± 2.1; that for `COc1ccc(CNC(=O)c2cc3c(=O)n4ccccc4nc3n(Cc3cccnc3)c2=N)cc1`, 4.715 ± 0.016.
Turning to `CCCC(=O)Nc1ccccc1NC(C)=O`, the “CD40L-induced NF-kB luciferase activity” value was 7.77 ± 2.6.
The result for `CC(=NN1CCN(Cc2cccc3ccccc23)CC1)c1cccnc1` reads 0.754 ± 2.2.
The result for `CCc1cccc2c3c([nH]c12)C(CC)(CC(=O)O)OCC3` (configuration not stated) reads 3.84 ± 0.98; that for `Cc1oc2c(C)c3oc(=O)c4c(c3cc2c1C)CCCC4`, 0.564 ± 2.2.
The result for `CCCCC(=O)O[C@]1(C(=O)CO)CC[C@H]2[C@@H]3CCC4=CC(=O)CC[C@]4(C)[C@H]3[C@@H](O)C[C@@]21C` reads -43.1 ± 20; that for `CC(C)CCc1noc(CN2CCC(CCN3CCCC3=O)CC2)n1`, 6.6 ± 0.72.
In the case of `CC1(C)c2ccccc2N2CC(=O)NC21/C=C/c1ccco1` (configuration not stated), the “CD40L-induced NF-kB luciferase activity” value is -6.94 ± 4.5.
`COC(=O)c1cc(-c2ccc(C)o2)nc2ccccc12`: the “CD40L-induced NF-kB luciferase activity” value was -2.83 ± 6.
For the molecule `CN(C)CC/C=C1\c2ccccc2COc2ccccc21`, the “CD40L-induced NF-kB luciferase activity” value was found to be 1.31 ± 3.8.
`CCOC(=O)C1(Cc2cccc(Cl)c2)CCCN(C2CCN(C(C)=O)CC2)C1` (configuration not stated): the “CD40L-induced NF-kB luciferase activity” value was -4.32 ± 1.5.
The result for `CC(C)NS(=O)(=O)c1ccc(OCC(=O)Nc2cccc(F)c2)cc1` reads -11.2 ± 15; that for `COC(=O)c1ccc(OCCCCN2CC(C)OC(C)C2)cc1` (configuration not stated), -3.27 ± 2.1.
The result for `Cc1ccc2c(c1)C1OCCC1C1N2C(=O)C2C(C(=O)O)C3C=CC21O3` (configuration not stated) reads 1.09 ± 0.44; that for `O=C(Nc1ccc(F)c([N+](=O)[O-])c1)c1ccc2c(c1)OCCO2`, 29.4 ± 0.63.
On to `CCC(=O)Nc1ccc(C(=O)N2CCN(C(=O)c3ccco3)CC2)cc1`, for which the “CD40L-induced NF-kB luciferase activity” value was -9.98 ± 0.32.
The result for `CC(C)=CCC/C(C)=C/CC/C(C)=C/CC/C(C)=C/CC1=C(C)C(=O)c2ccccc2C1=O` reads -9.849 ± 0.051; that for `Cc1ccc2c(c1)C1(C(=O)N2)N2CCCC2C(C(=O)c2ccc3ccccc3c2)C12C(=O)Nc1ccccc12` (configuration not stated), 41.8 ± 2.5.
